Test results reported in PMC13083723 (Patterns, 2026).
Hit rate of the full screen: of about 5,400 compounds, about 190 (3.5%) showed an effect of 50% or more. The list shows a part of the results.

System: Vero-E6
Experiment: primary screen, phospholipidosis by LipidTOX staining; higher = more effect of the substance
Conditions: 10 µM
Outline: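 Drug-induced phospholipidosis detected with HCS LipidTOX Red reagent in Vero-E6 cells. Compounds tested at 10 μM, with amiodarone (10 μM) as positive control and DMSO (0.1 v/v %) as vehicle.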

Which result_ITMP does the source give for `CC(C)C[C@H](NC(=O)[C@@H](COC(C)(C)C)NC(=O)[C@H](Cc1ccc(O)cc1)NC(=O)[C@H](CO)NC(=O)[C@H](Cc1c[nH]c2ccccc12)NC(=O)[C@H](Cc1cnc[nH]1)NC(=O)[C@@H]1CCC(=O)N1)C(=O)N[C@@H](CCCN=C(N)N)C(=O)N1CCC[C@H]1C(=O)NNC(N)=O` here?
The result_ITMP was -2.88%.

Which result_ITMP does the source give for `COc1ccccc1OC(=O)c1ccccc1OC(C)=O` here?
Its result_ITMP is 1.91%.

For `O=C(O)CC(S)C(=O)O` (stereo not drawn), which result_ITMP is on record?
The result_ITMP was -4.92%.

For `CO[C@@H]1[C@@H](OC(N)=O)[C@@H](O)[C@H](Oc2ccc3c([O-])c(NC(=O)c4ccc(O)c(CC=C(C)C)c4)c(=O)oc3c2C)OC1(C)C`, which result_ITMP is on record?
The result_ITMP was -3.28%.

With `CCOC(=O)C(=O)Nc1cccc(OC)c1C(N)=O` as the molecule, how does the result_ITMP read?
The result_ITMP was -3.58%.

How did the result_ITMP turn out when `COc1ccc2[nH]c(SCc3ncc(C)c(OC)c3C)nc2c1` was run?
Its result_ITMP is -4.05%.

For `Oc1c(CN2CCCC2)cc(COCc2ccccc2)c2cccnc12`, which result_ITMP is on record?
The result_ITMP was -1.35%.

For `NCCCCCC(=O)O`, which result_ITMP is on record?
The result_ITMP was -1.72%.

How did the result_ITMP turn out when `CC(C)CCNC(=O)[C@H](CC(C)C)NC(=O)[C@H]1O[C@@H]1C(=O)O` was run?
The result_ITMP was -2.18%.

With `O=c1[nH]c2ccccc2c(=O)n1CCCN1CCN(c2ccccc2)CC1` as the molecule, how does the result_ITMP read?
The result_ITMP was -3.31%.

How did the result_ITMP turn out when `c1ccc2c(CCNc3ccc(Nc4ccncc4)cc3)c[nH]c2c1` was run?
Its result_ITMP is 74%.

For `CCCCCCCCCCCCCCCCCCCCCC(=O)O`, which result_ITMP is on record?
The result_ITMP was -4.46%.

Which result_ITMP does the source give for `COc1ccc2c(Oc3ccc(NC(=O)c4c(C)n(CC(C)(C)O)n(-c5ccccc5)c4=O)nc3)ccnc2c1` here?
The result_ITMP was -2.93%.

Which result_ITMP does the source give for `COc1c(C)cnc(Cn2cnc3c(Cl)nc(N)nc32)c1C` here?
The result_ITMP was -3.87%.

Which result_ITMP does the source give for `Cc1ccc2c(c1)C(=O)[C@]1(O)CCN(c3ccccc3)C1=N2` here?
Its result_ITMP is -2.25%.

How did the result_ITMP turn out when `CN(C)C(=N)NC(=N)N` was run?
The result_ITMP was 2.14%.

Which result_ITMP does the source give for `Cc1nc2c([nH]1)-c1ccccc1N(C(=O)c1ccc(NC(=O)c3ccccc3-c3ccccc3)cc1)CC2` here?
Its result_ITMP is 15.4%.

Which result_ITMP does the source give for `CC(C)Oc1ccc(-c2cnc3c(-c4ccnc5ccccc45)cnn3c2)cc1` here?
Its result_ITMP is -4.25%.

`CC1=C(C)C(=O)C(C(CCCCCC(=O)O)c2ccccc2)=C(C)C1=O` (stereo not drawn) was tested. Which result_ITMP did it give?
The result_ITMP was -2.21%.

How did the result_ITMP turn out when `CCCCCCCCCCCCCCCC(=O)OC[C@H](O)[C@H]1OC(=O)C(O)=C1O` was run?
The result_ITMP was 1.78%.

How did the result_ITMP turn out when `NC(=O)C[C@H](N)C(=O)O` was run?
The result_ITMP was -8.16%.

How did the result_ITMP turn out when `C[C@@]1(CO)[C@H](O)CC[C@@]2(C)[C@H]1CC[C@H]1C[C@@H]3C[C@@]12CC[C@]3(O)CO` was run?
Its result_ITMP is 0.12%.

For `C[C@@H]1CC[C@H]2C(C)(C)[C@H]3C[C@@]12CC[C@@]3(C)O`, which result_ITMP is on record?
Its result_ITMP is 4.78%.

How did the result_ITMP turn out when `C#Cc1cncc([C@@H]2CCCN2C)c1` was run?
Its result_ITMP is -2.09%.
